For 111 compounds, z-score results are on record in PubChem BioAssay AID488969 (Vanderbilt High Throughput Screening Facility, 2010).

Several values for one entry are separate records, joined by “and”; a condition that tells them apart may be missing. Identical values can stand only once. Over roughly 110,000 compounds, “z-score” has its median near -0.1; the highest 2% begin near 2. This is one part of the list. Activity calls are given as the source filed them.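 The calls were made as follows: active = z-score in the third read window above 3 or below -3; inactive = the rest.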

The target in this test is Metabotropic glutamate receptor 8 (Rattus norvegicus) (UniProt P70579). The test can be described thus: mGluR8 Gi/Go-coupled signaling modulation – cell-based, rat, thallium flux, HTS, primary screen (AID 488969). As to conditions: HEK293 rat mGluR8, GIRK (G protein-gated inwardly rectifying potassium channel) thallium flux, FluoZin2; at 10 µM; stronger effect = higher value; submaximal glutamate (EC20) added with thallium.
Chain of UniProt P70579 (P70579 whole entry, looked up): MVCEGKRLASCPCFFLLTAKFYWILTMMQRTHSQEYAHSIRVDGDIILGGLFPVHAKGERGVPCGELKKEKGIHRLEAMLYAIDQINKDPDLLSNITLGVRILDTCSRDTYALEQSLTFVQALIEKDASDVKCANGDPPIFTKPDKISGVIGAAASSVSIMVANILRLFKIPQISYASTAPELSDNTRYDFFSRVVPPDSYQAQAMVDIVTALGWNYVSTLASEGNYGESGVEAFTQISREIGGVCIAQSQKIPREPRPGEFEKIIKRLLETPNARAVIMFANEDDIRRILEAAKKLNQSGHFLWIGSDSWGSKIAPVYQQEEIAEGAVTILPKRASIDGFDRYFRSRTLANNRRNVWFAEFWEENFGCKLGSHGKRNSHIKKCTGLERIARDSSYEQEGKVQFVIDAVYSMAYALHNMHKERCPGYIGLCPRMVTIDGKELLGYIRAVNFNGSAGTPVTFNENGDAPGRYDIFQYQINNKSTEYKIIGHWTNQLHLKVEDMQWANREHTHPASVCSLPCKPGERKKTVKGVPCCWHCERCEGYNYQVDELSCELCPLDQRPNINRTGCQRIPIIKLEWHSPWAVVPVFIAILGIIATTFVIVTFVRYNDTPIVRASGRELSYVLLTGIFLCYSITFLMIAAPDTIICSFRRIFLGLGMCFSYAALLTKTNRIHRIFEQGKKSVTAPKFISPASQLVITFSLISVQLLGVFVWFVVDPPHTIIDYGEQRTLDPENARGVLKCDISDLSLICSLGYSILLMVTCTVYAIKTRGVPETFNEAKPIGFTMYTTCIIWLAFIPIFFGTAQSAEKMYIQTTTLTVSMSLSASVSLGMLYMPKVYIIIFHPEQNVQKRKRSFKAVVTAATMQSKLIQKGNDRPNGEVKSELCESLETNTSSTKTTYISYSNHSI
Compound `COc1ccc(-n2nc(C(=O)NCC(=O)NCc3ccco3)c3ccccc3c2=O)cc1` displayed a z-score of -0.468.
The figure for `CCc1ccc(OCC(=O)OCC(=O)c2ccc3c(c2)NC(=O)CO3)cc1` is -0.272.
`COc1ccc(-c2nnn(CC(=O)N(Cc3ccccc3Cl)C(C(=O)NCC3CCCO3)c3ccco3)n2)cc1OC` (stereo unspecified) yielded a z-score of 0.205.
The figure for `CC(C)N(C(=O)CSc1nnc(-c2cc3ccccc3cc2O)n1Cc1ccco1)C(C)C` is -0.0489.
The figure for `O=C(N=Nc1c(O)[nH]c2ccccc12)c1cccc(S(=O)(=O)N2CCCCC2)c1` is -0.317.
For `Cc1ccc(-n2nc3ccc(NC(=O)c4ccc5c(c4)OCO5)cc3n2)cc1` the value was 0.0138; for `COc1ccc(/C(C)=N/N=C(\C)c2ccc(OC)cc2OC)c(OC)c1`, 0.0708.
In turn, `CN1CCN(C(=O)c2ccc(COc3ccc(C(C)(C)C)cc3)o2)CC1` had a z-score of -1.02.
As for `CC1Cc2ccccc2N1C(=O)CSc1nnnn1C1CCCC1` (stereo unspecified), the z-score was -0.0402.
The figure for `O=C(NC1CCS(=O)(=O)C1)OC1CCCCC1` (stereo unspecified) is -0.729; for `CCOC(=O)C(Cc1ccccc1)C(=O)Nc1ccccc1C` (stereo unspecified) it is -0.136; for `COc1ccc(-c2nc(C#N)c(NCc3ccccc3Cl)o2)cc1OC` it is -1.12.
For `OCCCNC(=S)Nc1ccc2nc(-c3ccccn3)c(-c3ccccn3)nc2c1` the value was -0.00335; for `Cc1cc(C)n(CC(O)Cn2c3ccc(Br)cc3c3cc(Br)ccc32)c(=O)n1` (stereo unspecified), 0.596.
For `Cc1cccc(NC(=S)NC(=O)c2ccco2)n1` the value was active: 3.93; for `Cc1nn2c(-c3ccccc3)nnc2c2ccccc12`, -2.86.
`Cc1nc(NCCc2ccccc2)c(C#N)c(C)c1[N+](=O)[O-]`: the z-score is -0.0588.
For `Cc1cc(C)cc(N(CC(=O)NCC2CCCO2)C(=O)CN2C(=O)COc3ccccc32)c1` (stereo unspecified) the value was -0.231; for `CC(=C\C(=O)O)/C(=C/c1ccccc1)C(=O)O`, 0.113; for `Brc1ccccc1OCCCn1cnc2ccccc21`, 1.08.
For `Cn1nnc(NC(=O)C(c2ccccc2)c2ccccc2)n1` the value was 0.0692.
For `O=C(O)CC1S/C(=N/N=C/C=C/c2ccccc2)NC1=O` (stereo unspecified) the value was -0.0651 and -0.0273.
The compound `CCCNS(=O)(=O)c1cccc2cccnc12` returned a z-score of -0.338.
Take `CCOC(=O)/C=C1\NC(C)(C)Cc2cc(OC)c(OC)cc21`: the z-score was -0.0877.
The figure for `CCOc1ccccc1NC(=O)Cn1cnc2c(cnn2-c2ccc(C)c(C)c2)c1=O` is -0.512; for `COc1cc(-c2nc3c(c(C)nn3-c3ccccc3)c3cc(OC)c(OC)cc23)ccc1O` it is -0.268; for `CCCCn1c(=O)[nH]c2ccccc21` it is -0.117.
For `O=C(CSc1oc(-c2cccs2)nc1S(=O)(=O)c1ccccc1)NC1CCCCC1` the value was -0.258; for `Clc1ccc2nc(N3CCNCC3)nc(-c3ccccc3)c2c1`, 1.19.
With `Cc1ccc(N(CC(=O)NCCSCc2ccco2)S(C)(=O)=O)cc1`, the z-score was -0.296.
For `CCOc1cc(/C=N/NC(=O)CN2CCCCC2)ccc1OCc1cccc(Cl)c1` the value was 0.18; for `CS(=O)(=O)N(Cc1ccccc1F)c1ccccc1`, -0.21; for `CCCCOC(=O)C1=C(C)Nc2ncnn2C1c1ccc(OC)c(OC)c1OC` (stereo unspecified), -0.181.
The figure for `COC(=O)c1sc(=S)n(-c2cc(F)ccc2F)c1N` is -0.0195; for `COc1ccc(C(=O)CN2C(=O)C(C)(C)Oc3ccc(C(=O)N4CCCCCC4)cc32)cc1` it is -0.448; for `COc1ccc(N2C(=O)C3CCCN3C2c2ccc(Cl)cc2)cc1` (stereo unspecified) it is -0.0455.
The figure for `CC(=O)c1cnc(Nc2nc(C)c3ccccc3n2)nc1C` is 0.0595; for `Cc1ccc(S(=O)(=O)N2CCOCC2)cc1NC(=O)Cn1ccsc1=N` it is 0.262.
As for `Cc1cc(N2CCN(Cc3ccccc3)CC2)n2nc(C)c(-c3ccccc3)c2n1`, the z-score amounted to 0.0393.
The figure for `CCOC(=O)CSc1nc2sc3c(c2c(=O)[nH]1)CCCC3` is -0.982; for `CC(C)=CCC/C(C)=C/C=N/NC(=O)c1ccc([N+](=O)[O-])cc1` it is 1.52.
The figure for `COCC(=O)Nc1ccc(Br)cc1` is -0.174.
The figure for `Cc1ccc(NC(=O)C(C)c2cccc(C(=O)c3ccccc3)c2)cc1` (stereo unspecified) is -0.329; for `CCOC(=O)Cn1c(=NC(=O)c2nc3ccccc3s2)sc2cc(S(N)(=O)=O)ccc21` it is -0.287.
For the compound `CC(CN1CCNCC1)(NS(=O)(=O)c1ccccc1)c1ccccc1` (stereo unspecified), the z-score came out at 0.939.
Consider `COc1ccc(N=CC2=C(O)c3ccccc3C2=O)c(OC)c1`, for which the z-score is -0.0906.
The figure for `CCC(=O)N1N=C2CC(C)(C)OCC2C1c1ccccc1` (stereo unspecified) is 0.0291.
For `COc1ccccc1-c1coc2c(CN3CCN(C)CC3)c(O)ccc2c1=O` the value was -0.247; for `COc1ccc(/C=C/C(=O)NC(=S)NNC(=O)c2ccco2)cc1`, 0.921.
The figure for `Nc1c(-c2ccc(Cl)cc2)cnn1-c1cccc([N+](=O)[O-])c1` is 0.211; for `CCOc1ccc(NC(=S)N(Cc2ccc(Cl)cc2)Cc2ccco2)cc1` it is 0.243.
Consider `Cc1cc(C)c(N=C2CCCN2Cc2ccccc2)c(C#N)c1`, for which the z-score was -1.24.
For `CCC(Sc1nc(N)c(NC(=O)c2ccc(OC)c(OC)c2)c(=O)[nH]1)C(=O)OC` (stereo unspecified) the value was -0.143; for `CSc1ncccc1C(=O)OCC(=O)NC(N)=O`, -0.358.
For the compound `COC(=O)c1sccc1NC(=O)c1cc2c(s1)CCCC2`, the z-score is -0.149.
The compound `COc1ccc(NC(=O)c2ccc(COCC(F)(F)C(F)F)cc2)cc1` had a z-score of -0.334.
For `Cc1c(O)ccc(C(=O)COc2ccc(F)cc2)c1O` the value was -0.135.
The figure for `CCOC(=O)N1CCC(N2CCN(S(=O)(=O)CC)CC2)CC1` is -0.0847; for `COc1cc(CNC(=O)c2ccc(Cn3nc(C)c(Cl)c3C)o2)cc(OC)c1` it is -2.29.
The figure for `O=C(CCl)N1c2ccccc2OCC1c1ccccc1` (stereo unspecified) is -0.994; for `CC1(C)CC(NC(=O)Cc2ccccc2[N+](=O)[O-])CC(C)(C)N1` it is -0.145.
Compound `COc1ccc(S(=O)(=O)N2CCN(c3cc(-c4ccccc4)nc4ncnn34)CC2)cc1` showed a z-score of -0.346.
Compound `N#CCCN(Cc1cccnc1)C(=O)c1ccc(S(=O)(=O)N2CCOCC2)cc1` registered a z-score of -0.285.
The figure for `O=C(OCc1ccccc1Cl)c1ccccc1C(=O)c1ccccc1` is -0.013.
The figure for `CC(C)Cn1c(-c2ccco2)nc2c(c(=O)c3ccccc3n2C)c1=O` is -1.47.
The figure for `COc1ccccc1CNC(=O)COC(=O)Cc1ccc(Cl)cc1` is -0.422; for `Sc1oc(-c2ccccc2)cc1C=Nc1ccccc1` it is 0.839; for `COC(=O)C1C(=O)NC(SC)=C(C#N)C1c1ccccc1` (stereo unspecified) it is -0.413.
Compound `O=C(NCc1ccco1)c1ccc2c(c1)C(=O)c1ccccc1-2` displayed a z-score of -0.356.
The figure for `Cc1onc(-c2ccccc2Cl)c1C(=O)Nc1cccc2cccnc12` is 0.0209; for `COc1ccc(CN(Cc2cc3cc4c(cc3[nH]c2=O)OCO4)C(=O)NC2CCCCC2)cc1` it is 0.473; for `O=C(CSc1ncnc2sc3c(c12)CCCC3)c1ccccc1` it is 1.03.
For `CCn1nnc(NC(=O)c2ccccc2Br)n1` the value was -0.101; for `Cc1cc(C)nc(N(C#N)Cc2ccc(Br)cc2)n1`, -1.35.
The figure for `CCNc1nc(NC#N)nc(SCC(=O)OCC)n1` is -0.413; for `COc1ccc(CN=C2NC(=O)CC(C(=O)Nc3ccccc3C)S2)cc1` (stereo unspecified) it is -0.149.
For the compound `COc1ccccc1Nc1nc(N)nc(CN2CCCCCC2)n1`, the z-score was determined as 1.23.
The figure for `COc1cc(NC(=O)c2ccc(COCC(F)(F)F)cc2)cc(OC)c1OC` is -0.608; for `Cc1ccc(C)c(S(=O)(=O)N/N=C2/CCCc3ccccc32)c1` it is -0.153; for `Cc1cccc(N2CCN(c3ccc(NC(=O)/C=C(/C(=O)O)c4ccccc4)cc3)CC2)c1` it is 0.00838.
For `CC(C)c1cc(NCC2CCCO2)n2c(nc3ccccc32)c1C#N` (stereo unspecified) the value was -1.25; for `Brc1ccc(-c2noc(CCc3ccccc3)n2)o1`, 0.116.
Regarding `CCOC(=O)C(NC(=O)CCl)(Nc1sc(C)c(CC)c1C#N)C(F)(F)F` (stereo unspecified), the z-score is -0.704.
For `COc1ccc(Nc2oc(-c3ccc(Cl)cc3)nc2C#N)cc1` the value was -0.0925; for `Cc1ccc2c(c1)-c1c(cnn1CC(=O)O)CO2`, -0.325.
The figure for `COc1ccc(CNC(=O)CN2C(=O)C(C)N(c3ccc(C)cc3)C2=O)cc1` (stereo unspecified) is -0.198; for `CC(C)(C)c1nc2c(C#N)c(-c3ccc(Cl)cc3)ccn2n1` it is -0.488; for `O=c1oc(-c2cccs2)nc2scc(-c3cccs3)c12` it is -0.0494.
For `CCC(=O)Nc1ccccc1C(=O)OCC(=O)c1ccccc1` the value was -0.38.
For the compound `CCOc1ccc(NC(=O)CCN2CCN(c3ccccc3)CC2)cc1`, the z-score is -0.572.
`CCOC(=O)c1c(NC(=O)Cc2cccs2)sc2c1CCCC2` displayed a z-score of 0.258.
The figure for `Cc1ccc(S(=O)(=O)/N=S(/C)c2ccccc2)cc1` (stereo unspecified) is 0.693; for `CCOC(=O)c1cc(-c2ccccc2)sc1NC(=O)C(C)C` it is -0.259.
The figure for `CC1=CC(c2ccc(Cl)cc2)n2nc(NC(=O)c3ccccc3)nc2N1` (stereo unspecified) is 0.22; for `O=C(COc1ccc(Cl)cc1Cl)Nc1nc2n(n1)C(c1ccccc1)CC(=O)N2` (stereo unspecified) it is -0.56.
The figure for `CCCOc1ccc(/C=N/NC(=O)CSCc2ccc([N+](=O)[O-])cc2)cc1OCC` is -0.284; for `CCNC(=O)COc1cccc2ccccc12` it is 1.28; for `CC(c1ccccc1)n1cc(C(=O)NCc2ccccn2)nn1` (stereo unspecified) it is 0.775.
In turn, `COc1cc(/C=N/N=C/c2cc(OC)c(O)c(OC)c2)cc(OC)c1O` had a z-score of -0.507.
`CCS(=O)(=O)c1nnnn1-c1ccccc1S(C)(=O)=O` showed a z-score of -0.123.
`Cc1ccc(-c2nn3nnnc3c3ccccc23)cc1C` showed a z-score of -0.106.
Compound `CN1C(=O)CC(N2CCN(c3ccc(Cl)cc3)CC2)C1=O` (stereo unspecified) gave a z-score of -0.269.
The figure for `O=C(OCc1ccccc1)N1CCOCCOCCN(C(=O)OCc2ccccc2)CCOCCOCC1` is -0.384; for `Cc1ccc(C(=O)NC2CCSC2=O)cc1` (stereo unspecified) it is -0.0883.
The figure for `COCCn1c(SCC(=O)Nc2ccc(Cl)cn2)nc2ccccc21` is -0.407; for `CCC(C)(C)NC(=O)c1ccc2c(c1)S(=O)(=O)c1ccccc1C2=O` it is -0.756; for `O=C(O)CCCC(=O)N1CCc2cc(S(=O)(=O)N3CCc4ccccc43)ccc21` it is -0.342.
For `CCN(CC)S(=O)(=O)c1cccc(C(=O)N[C@H](C(=O)NCc2ccccc2F)C(C)C)c1` the value was 0.114; for `O=C(Oc1ccc([N+](=O)[O-])cc1)c1ccc(Cl)c(S(=O)(=O)N2CCCCC2)c1`, -0.509.
As for `CS(=O)(=O)N(Cc1ccc(C(=O)NN=C2CCCC2)cc1)c1ccccc1`, the z-score is -0.157.
For `CCOc1ccc(NC(=O)CC2C(=O)N(C)C(=S)N2Cc2ccc3c(c2)OCO3)cc1` (stereo unspecified) the value was -0.0979.
